Assay results taken from PMC10411901, “FIRRM cooperates with FIGNL1 to promote RAD51 disassembly during DNA repair” (Science Advances, 2023).
These are yes or no findings as the source states them, for the method shown. Some entries that bind do so weakly or less than the wild type. Sequences can lack the tags named with a protein.

Key:
Test in all cases: LacO/LacR tethering assay (recruitment to a LacO array in cells); mCherry-LacRnls-bait transiently transfected and held at the LacO array of U2OS 2-6-5 cells; colocalization of the GFP-tagged prey at the mCherry locus quantified; FOK1 nuclease not expressed
[1] = biological target: T1, mCherry-LacRnls-FIGNL1 K447A (human) (UniProt Q6PIW4)
T1 sequence: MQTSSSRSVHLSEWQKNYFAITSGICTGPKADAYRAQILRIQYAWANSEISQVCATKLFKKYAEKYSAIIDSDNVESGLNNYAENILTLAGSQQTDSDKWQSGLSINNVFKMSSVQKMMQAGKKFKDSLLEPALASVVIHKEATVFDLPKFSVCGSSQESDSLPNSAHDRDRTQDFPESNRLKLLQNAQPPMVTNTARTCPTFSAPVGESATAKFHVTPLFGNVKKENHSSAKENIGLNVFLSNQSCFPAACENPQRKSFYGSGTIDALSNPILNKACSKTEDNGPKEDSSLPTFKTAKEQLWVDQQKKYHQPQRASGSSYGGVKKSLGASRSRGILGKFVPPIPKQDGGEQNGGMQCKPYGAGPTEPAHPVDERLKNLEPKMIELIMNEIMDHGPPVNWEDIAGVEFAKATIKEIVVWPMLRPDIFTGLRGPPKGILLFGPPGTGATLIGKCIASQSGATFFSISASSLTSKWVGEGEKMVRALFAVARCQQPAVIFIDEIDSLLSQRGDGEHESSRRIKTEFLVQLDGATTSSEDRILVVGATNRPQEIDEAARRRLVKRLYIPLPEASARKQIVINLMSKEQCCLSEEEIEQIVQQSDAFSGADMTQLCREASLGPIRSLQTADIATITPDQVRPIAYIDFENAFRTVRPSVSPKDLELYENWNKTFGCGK

[2] = biological target: T2, mCherry-LacRnls-FIGNL1 KDm (K447A/D500A) (human) (UniProt Q6PIW4)
T2 sequence: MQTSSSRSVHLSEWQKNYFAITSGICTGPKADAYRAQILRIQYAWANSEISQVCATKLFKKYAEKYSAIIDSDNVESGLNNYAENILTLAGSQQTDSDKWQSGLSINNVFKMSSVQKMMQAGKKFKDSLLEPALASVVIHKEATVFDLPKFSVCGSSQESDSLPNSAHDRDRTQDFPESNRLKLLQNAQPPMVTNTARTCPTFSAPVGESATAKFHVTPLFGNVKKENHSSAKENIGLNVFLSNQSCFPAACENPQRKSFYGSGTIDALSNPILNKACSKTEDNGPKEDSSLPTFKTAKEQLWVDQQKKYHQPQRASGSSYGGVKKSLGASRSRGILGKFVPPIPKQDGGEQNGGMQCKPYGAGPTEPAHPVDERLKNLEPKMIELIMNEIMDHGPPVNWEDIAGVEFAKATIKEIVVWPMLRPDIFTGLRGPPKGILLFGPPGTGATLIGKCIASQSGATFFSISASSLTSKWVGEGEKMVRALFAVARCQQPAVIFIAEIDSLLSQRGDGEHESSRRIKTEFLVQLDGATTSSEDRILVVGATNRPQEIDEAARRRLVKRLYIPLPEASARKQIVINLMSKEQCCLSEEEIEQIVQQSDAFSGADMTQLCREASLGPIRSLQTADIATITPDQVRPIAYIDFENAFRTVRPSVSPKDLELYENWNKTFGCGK

[3] = biological target: T3, mCherry-LacRnls-FIGNL1 ∆FRBD (human) (UniProt Q6PIW4)
T3 sequence: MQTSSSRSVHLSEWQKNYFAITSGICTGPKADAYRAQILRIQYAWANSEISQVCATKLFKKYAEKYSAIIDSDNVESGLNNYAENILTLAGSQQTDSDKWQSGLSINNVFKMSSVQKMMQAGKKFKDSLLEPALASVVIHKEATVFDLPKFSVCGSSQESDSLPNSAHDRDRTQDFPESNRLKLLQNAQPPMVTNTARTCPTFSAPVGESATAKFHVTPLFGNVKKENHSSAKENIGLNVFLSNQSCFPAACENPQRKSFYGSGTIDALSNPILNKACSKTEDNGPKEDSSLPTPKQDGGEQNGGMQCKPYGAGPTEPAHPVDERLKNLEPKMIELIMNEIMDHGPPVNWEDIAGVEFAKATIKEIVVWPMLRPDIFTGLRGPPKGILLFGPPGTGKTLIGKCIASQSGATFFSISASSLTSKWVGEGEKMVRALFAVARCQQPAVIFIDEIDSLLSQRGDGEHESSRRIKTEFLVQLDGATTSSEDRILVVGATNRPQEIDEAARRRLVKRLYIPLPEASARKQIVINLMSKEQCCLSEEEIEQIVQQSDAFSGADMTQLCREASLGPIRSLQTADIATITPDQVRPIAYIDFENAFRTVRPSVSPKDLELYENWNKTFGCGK

[4] = biological target: T4, mCherry-LacRnls-FIGNL1 amino acids 121 to 674 (human) (UniProt Q6PIW4)
T4 sequence: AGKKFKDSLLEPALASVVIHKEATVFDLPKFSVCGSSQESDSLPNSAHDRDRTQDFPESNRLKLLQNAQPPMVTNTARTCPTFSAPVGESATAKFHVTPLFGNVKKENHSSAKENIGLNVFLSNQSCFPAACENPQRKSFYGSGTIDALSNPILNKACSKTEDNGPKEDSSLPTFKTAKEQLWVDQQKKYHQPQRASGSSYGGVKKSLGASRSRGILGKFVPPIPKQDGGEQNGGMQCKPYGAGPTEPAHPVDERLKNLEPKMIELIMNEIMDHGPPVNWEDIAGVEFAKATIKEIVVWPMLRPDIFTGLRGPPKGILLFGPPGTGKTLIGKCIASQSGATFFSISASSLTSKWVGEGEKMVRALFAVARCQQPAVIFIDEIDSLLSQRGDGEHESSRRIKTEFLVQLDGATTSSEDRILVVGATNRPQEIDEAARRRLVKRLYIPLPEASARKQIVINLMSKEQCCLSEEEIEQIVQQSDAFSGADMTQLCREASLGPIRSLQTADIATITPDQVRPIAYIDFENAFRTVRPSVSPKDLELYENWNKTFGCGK

B1: GFP-FIRRM full length (protein, UniProt Q9NSG2 1-853)
chain: MFLPHMNHLTLEQTFFSQVLPKTVKLFDDMMYELTSQARGLSSQNLEIQTTLRNILQTMVQLLGALTGCVQHICATQESIILENIQSLPSSVLHIIKSTFVHCKNSESVYSGCLHLVSDLLQALFKEAYSLQKQLMELLDMVCMDPLVDDNDDILNMVIVIHSLLDICSVISSMDHAFHANTWKFIIKQSLKHQSIIKSQLKHKDIITSLCEDILFSFHSCLQLAEQMTQSDAQDNADYRLFQKTLKLCRFFANSLLHYAKEFLPFLSDSCCTLHQLYLQIHSKFPPSLYATRISKAHQEEIAGAFLVTLDPLISQLLTFQPFMQVVLDSKLDLPCELQFPQCLLLVVVMDKLPSQPKEVQTLWCTDSQVSETTTRISLLKAVFYSFEQCSGELSLPVHLQGLKSKGKAEVAVTLYQHVCVHLCTFITSFHPSLFAELDAALLNAVLSANMITSLLAMDAWCFLARYGTAELCAHHVTIVAHLIKSCPGECYQLINLSILLKRLFFFMAPPHQLEFIQKFSPKEAENLPLWQHISFQALPPELREQTVHEVTTVGTAECRKWLSRSRTLGELESLNTVLSALLAVCNSAGEALDTGKQTAIIEVVSQLWAFLNIKQVADQPYVQQTFSLLLPLLGFFIQTLDPKLILQAVTLQTSLLKLELPDYVRLAMLDFVSSLGKLFIPEAIQDRILPNLSCMFALLLADRSWLLEQHTLEAFTQFAEGTNHEEIVPQCLSSEETKNKVVSFLEKTGFVDETEAAKVERVKQEKGIFWEPFANVTVEEAKRSSLQPYAKRARQEFPWEEEYRSALHTIAGALEATESLLQKGPAPAWLSMEMEALQERMDKLKRYIHTLG
Question: What does the source list for B1?
Answer: binding [1]: binds; binding [2]: binds; binding [3]: binds; binding [4]: no binding
